Laboratory results: PubChem BioAssay AID485313 (National Center for Advancing Translational Sciences (NCATS), 2010)
About 7,600 (2.4%) of roughly 320,000 compounds were called active. The inconclusive results got no clear call from the source; some entries with a clear call stand among them for comparison. The call rests on the fitted dose curve; in most records, active means well fitted activation curve with a large enough effect; inconclusive means small, poorly fitted or top-dose-only effect; inactive means no such curve, though single readings can be large or run the other way. Potencies beside an inconclusive call are fits to weak or partial responses and may not hold up.

Assay: qHTS Assay for NPC1 Promoter Activators; further: nearly all actives have a fitted effect of over 60% in size;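 on activation: reporter is driven by a mutant NPC1 promoter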
Conditions: Huh7 NPC1 promoter luciferase reporter, 24 h; series mostly up to 9.22 µM
Summary of the method: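 Quantitative HTS used a cell-based reporter: Huh7 cells stably bearing the NPC1 promoter upstream of luciferase were treated with compounds for 24 h, and promoter activation was read as luminescence.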
Potency means the concentration at half of the fitted maximal effect; tags describe the fitted curve by direction and shape.

Potency, active:
Cn1c(-c2ccccc2)cc2onc(-c3ccccc3)c2c1=O 0.0794 µM, Cc1ccn(-c2cccc(-n3ccc(C)n3)n2)n1 3.16 µM, Cc1ccc2nc(N/N=C/c3ccco3)cc(C)c2c1 2.82 µM, CCOc1c(Cl)cc(C(=O)Nc2cccc(C(=O)O)c2)cc1Cl 0.562 µM, O=C(Nc1ccccc1)N1CC=C(c2ccc(F)cc2)CC1 4.47 µM, COc1ccc(C(=O)NCCC2=CCCCC2)cc1 0.355 µM, Cc1ccccc1CN1CCN(c2nc3ccccc3s2)CC1 1.58 µM, COCC(C)NC(=O)c1noc2c1CCc1cc(OC)ccc1-2 (stereo unspecified) 3.16 µM, CC(=O)c1sc(Nc2nc3ccc(F)cc3s2)nc1C 2.82 µM, Cc1cccc(-n2cnc(C(=O)Nc3cccnc3)c2)n1 2.82 µM, CCCn1nnc(NC(=O)c2ccc(-c3ccccc3)cc2)n1 2.51 µM

Potency, inactive:
O=C1/C(=C/c2cccc(Cl)c2)CSc2sccc21, Cc1ccc([N+](=O)[O-])cc1S(=O)(=O)Nc1ccc(-c2ccc(N3CCOCC3)nn2)cc1, COC(=O)c1cc(-c2ccc(C)cc2)n[nH]1, Nc1nnc(SCC(=O)OCC(=O)c2ccccc2Br)s1, O=S(=O)(Nc1cccnc1)c1ccc(Cl)cc1, CCn1c(C)[n+](Cc2ccccc2)c2ccc(C(=O)OC)cc21, CCOC(=O)C1=C(CN2CCN(C(=O)c3ccco3)CC2)NC(=O)NC1c1ccc(Cl)cc1 (stereo unspecified), Cc1c(NC(=O)Nc2cccc(C#N)c2)c(=O)n(-c2ccccc2)n1C, COc1cccc(NC(=O)CNC(=O)c2ccc(OC)c(OC)c2)c1, O=C(CSc1ncnc2c1cnn2-c1ccc(F)cc1)NC1CCCC1, Cc1cc(C(=O)CN2C(=O)C(=O)N(C3CCCC3)C2=O)c(C)n1-c1ccc(F)cc1, COc1ccc(/C=N/NC(=O)C(=O)NCc2cccnc2)cc1, O=C(N/N=C/c1cc(Br)c(O)c(Br)c1)c1cccc(C(F)(F)F)c1, CCOC(=O)N1CCN(C(=O)c2cc3c(s2)-c2c(C)cccc2OC3)CC1, O=C(Nc1ccccn1)c1ccc(Cl)c(S(=O)(=O)N2CCc3ccccc32)c1, CN(C(=O)COC(=O)c1cc(S(=O)(=O)N2CCOCC2)ccc1Cl)C1CCS(=O)(=O)C1 (stereo unspecified), Cc1ccnc2nc(C(=O)Nc3nnc(CC(C)C)s3)nn12, CC(C)c1ccc(-c2nn(-c3ccccc3)cc2C(=O)NCC2CCCO2)cc1 (stereo unspecified)

Potency, inconclusive:
Cc1ccccc1CNC(=O)Cc1ccccc1[N+](=O)[O-] 3.98 µM [activator, partial curve], Fc1ccc(-c2nnc(NC3=NCCCCC3)o2)cc1 0.112 µM [activator, partial curve], CC(C)(C)Cc1nnc(NC(=O)CCc2ccccc2)s1 3.98 µM [activator, single point], CC/C(=N\NC(=O)c1ccc2c(c1)OCO2)c1ccccc1 6.31 µM [activator, single point], Cc1ccc2[nH]c3c(c2c1)CN(C(=O)CN1CCCCC1)CC3 3.98 µM [activator, single point], O=C(CNC(=O)c1sc2ccccc2c1Cl)NC1CC1 2.24 µM [activator, partial curve], c1ccc2[nH]c(SCc3cn4ccccc4n3)nc2c1 3.55 µM [activator, single point], O=C(Nc1ccc(Nc2ccccc2)cc1)c1ccco1 2.51 µM [activator, partial curve], COC(=O)c1[nH]c2cc(C)ccc2c1NC(=O)CN1CCCc2ccccc21 3.55 µM [activator, partial curve], Oc1[nH]c(=S)sc1C=C1N=c2ccccc2=N1 2.24 µM [activator, partial curve], CCc1ccc2[nH]c(C(=O)Nc3ccc4c(c3)OCO4)cc2c1 2.82 µM [activator, partial curve], CCNC(=O)COc1ccc(-c2ccccc2)cc1 2.82 µM [activator, partial curve], CCc1ccc2nc(N(CCCN(C)C)C(=O)c3ccc(S(=O)(=O)N4CCCC4)cc3)sc2c1 0.282 µM [activator, full curve, poor fit], Clc1cccc(Cl)c1Cn1nnc(-c2cccs2)n1 0.112 µM [activator, full curve, poor fit], Cc1cc(C)n2nc(-c3cccc(Br)c3)cc2n1 6.31 µM [activator, single point], O=C(/C=C/c1ccco1)NCCc1ccccc1 3.98 µM [activator, partial curve], COc1cccc(-c2nc(-c3ccc(NC(=O)c4cccnc4)cc3)no2)c1 3.16 µM [activator, partial curve], Cc1cc(C(=O)COC(=O)c2ccc(NC(=O)CC#N)cc2)c(C)n1C1CC1 3.16 µM [activator, partial curve], COc1cccc(CNC(=O)COc2ccc(C(=O)c3ccccc3)cc2)c1 1.26 µM [activator, single point], Nc1ccc2oc(C3CCCCC3)nc2c1 1.58 µM [activator, partial curve], CSCc1ccc(C(=O)NCCSc2ccc(Br)cc2)cc1 3.55 µM [activator, single point], O=C(O)c1cc(N/N=C/c2ccc(N3CCOCC3)cc2)ccc1Cl 0.282 µM [activator, full curve], COC(=O)c1sc(-c2cccs2)cc1N 6.31 µM [activator, single point], Cc1[nH]n(-c2cccc3ccccc23)c(=O)c1/C=N/c1sc2c(c1C#N)CCC2 1.26 µM [activator, single point], CC(CNC(=O)c1ccccc1Cl)c1ccccc1 (stereo unspecified) 3.55 µM [activator, partial curve], Cc1ccc(C(=O)Nc2ccc3c(c2)OCCO3)o1 3.98 µM [activator, single point], CCC(C)(C)C1CCc2[nH]nc(C(=O)NC3CCCCC3)c2C1 (stereo unspecified) 5.62 µM [activator, single point], NC(=O)c1ccccc1-c1noc(-c2ccccc2F)n1 5.62 µM [activator, single point], O=c1c2ccccc2nc(SCc2nc3ccccc3s2)n1CCCO 3.16 µM [activator, partial curve], O=C(Nc1ccccc1C(=O)O)c1ccc(Br)o1 3.55 µM [activator, single point], Cc1ccc(C(=O)NCCc2csc(C)n2)cc1 2.24 µM [activator, partial curve], CCN1CCN(C(=O)c2ccc(-c3nc4ccccc4s3)s2)CC1 0.562 µM [activator, full curve, poor fit], O=C(N/N=C/C(Cl)=C/c1ccc([N+](=O)[O-])cc1)C(=O)Nc1cccc(C(=O)O)c1 3.16 µM [activator, single point], C/C(=N\NC(=O)c1ccn(C)n1)c1ccc(NC(=O)c2cccc(F)c2)cc1 4.47 µM [activator, single point], Cc1ccc(-c2cc3onc(-c4ccccc4)c3c(=O)n2C)cc1 0.0891 µM [activator, full curve], O=C(Cc1cccs1)N/N=C/C=C\c1ccccc1[N+](=O)[O-] 3.55 µM [activator, single point], Cc1cc(NCCCn2ccnc2)n2nc(-c3ccc(Cl)cc3)cc2n1 0.251 µM [activator, full curve, poor fit], S=C(NCCc1ccccc1)N/N=C/c1ccccc1Cl 3.55 µM [activator, single point], N/C(=N\OCc1ccc([N+](=O)[O-])cc1)c1ccccn1 1.41 µM [activator, partial curve, poor fit], COc1cccc(C(=O)/C=C/Nc2cccc(O)c2)c1 5.62 µM [activator, single point], Oc1ccccc1CNc1cnc2ccccc2c1 3.98 µM [activator, single point], O=c1[nH]c(/C=C/c2ccccc2[N+](=O)[O-])nc2ccccc12 2.51 µM [activator, partial curve], CC(=O)COc1ccc2c(c1C)O/C(=C\c1ccco1)C2=O 5.62 µM [activator, single point], Cc1ccc(Nc2nc3ccccc3n3cnnc23)cc1Cl 3.55 µM [activator, single point], CCCC(=O)NC(=S)Nc1ccc(C(C)=O)cc1 4.47 µM [activator, partial curve], COc1ccc(N2COC3c4cccc5cccc(c45)C32)cc1 (stereo unspecified) 3.16 µM [activator, partial curve], Cc1ccc(Cn2cc(-c3ccccc3)nn2)cc1 3.55 µM [activator, partial curve]
